Laboratory results as given in the supplement of paper PMC11417369.
The list shows a part of the results.

The sequences below were run on PfSIP2 AP2 domain 1 (GST-tagged) (assay: gcPBM binding intensity (ln(normalized median fluorescence intensity)); higher = stronger DNA binding).
How it was run: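 In this array assay, P. falciparum DNA-binding domains with a GST tag, expressed in E. coli, were applied for 1 h to primer-extended double-stranded 36-bp intergenic genomic probes and negative controls on an Agilent 4 × 180k array. Bound protein was visualised with Alexa488 anti-GST antibody at 488 nm. Binding intensity is the highest Masliner-normalised natural-log median intensity across replicate spots of either probe orientation.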

Row | Sequence | gcPBM binding intensity (ln)
1 | TAAAATTAATAAAATATTTTCACTTAATATATATAA [CACACA_negctrl_site1550] | 6.9
2 | ATGTTGTACAAACACACACACAAAAAAAAAATAAAA [CACACA_site2406] | 7.34
3 | ATATATATATGTGGATGTACATATATCTCTTATTAT [XGTACX_site1748] | 9.14
4 | TTTTACATAAATTATAAATATATAAAATAAAAAAAA [CACACA_negctrl_site1499] | 6.76
5 | TTAATATTCCAGCTTTGTACATATATATATTATAAA [XGTACX_site7954] | 7.18
6 | TTAATGGAAAAATAGGCACACACACCGATATACATA [CACACA_site8356] | 6.86
7 | TGGCTTTCCCTGCCGGTGCATTAACATTTTTTACAT [GTGCAC_site9914] | 9.58
8 | CATATATATATTTTTTGTACATATATTTTTACATAT [XGTACX_site8419] | 7.14
9 | AAAAAGAAGAAGAAATGTACGTAACTATATATTTAT [XGTACX_site4362] | 6.93
10 | ATTGTAAGGAAACACACACACATATATATGTATATA [CACACA_site676] | 7.07
11 | TATATGTTTAATTTCACACACAAATATGCATTTTAA [CACACA_site7881] | 7.04
12 | AAATAAATACTAGGCACACACACATATATATATATA [CACACA_site2079] | 9.16
13 | ATTATTGTAATATTAGCACACATTACCTCACTACAA [CACACA_site2560] | 7.11
14 | ATATATATATATATATGTACGTATAATATATATATG [XGTACX_site2212] | 9.34
15 | ATTATTCAGGTAAAGTGTACAGGAGAAAAATAAAAT [XGTACX_site334] | 7.24
16 | CGCACCCAAATATATACACACATATATATATATATA [CACACA_site1651] | 9.54
17 | GGAAAATGAAAACAAGGTACACATAAGAACAAACAA [XGTACX_site1221] | 7.37
18 | AATAGGGTCATTCAAAAAAAAAAAAAATAATAATAC [CACACA_negctrl_site644] | 7.16
19 | AAATCACATAAAAATAGTACTTTTTTTTTTTTTTTT [XGTACX_site2696] | 7.47
20 | TGTTTTTATCCTTATGGTACAGTATAATACTTACAG [XGTACX_site6381] | 7.29
21 | TAAAAGAAATATACATGTACATAAATATATATATAT [XGTACX_site1276] | 9.1
22 | GCCCAACCAAAATATACACACAGTTGAATGAATAAA [CACACA_site2597] | 7.26

Row | Sequence | gcPBM binding intensity (ln)
23 | TATATTTGGAAATATTCTCAATTGGTACAAATAAAA [CACACA_negctrl_site1202] | 7.06
24 | TTGGTAATAATTTGAGGTACACTGTATAAATTTTTT [XGTACX_site909] | 6.99
25 | ATTTTTTTGTGTTTGGTACACACGTTATAAAAAATA [CACACA_site1345] | 7.19
26 | TTTTTTTCTTAAAGATGTACTTTTTTAAAATAATCT [XGTACX_site3663] | 6.87
27 | AATAATAAATTATGGTGTACGCATTTGTATATATAC [XGTACX_site5417] | 7.47
28 | AAAAAAATAAAATTATATAAAATAAATTTTTATAAT [GTGCAC_negctrl_site587] | 6.65
29 | TTTTGGATCATTTGTTGTACATATGCAAAAAAAAAA [XGTACX_site3157] | 7.1
30 | GGAAAATACATTCCAGTGCATTAATTTATTCAACGT | 8.59
31 | TATGATACATAATATACATGCATACACAACATTCAG [TGCATGCA_site487] | 6.99
32 | GATATGTGACGTTTGGTATTTTTGATGTTGGTAGGA [CACACA_negctrl_site1448] | 7.16
33 | AATTCTTTTTTCAACACACACACACTAGAAAATATA [CACACA_site5681] | 7.29
34 | TAAATACAGAAACACACACACAAATATATACATACA [CACACA_site2880] | 7.01
35 | TTTATATATTATTAATGTACAAAATTTTTATTGCAT [XGTACX_site3329] | 6.96
36 | ACATTAAGACACATTGCACACGTGCACCCATAGAAA [CACACA_site8029] | 12
37 | ACCTGGACAAAAATAAATAAATAAATAAATAAATGA [GTGCAC_negctrl_site238] | 7.1
38 | GGAATTATATGAAATAAACACACATATGTAATATTA [CACACA_site8586] | 6.83
39 | TTTTTTTTTTTTTTGGTGCGTTTATATATAAATATA | 8.81
40 | AAAATCTAATATAATGCACACATAAAAAAAAAATCA [CACACA_site8871] | 7.17
41 | TACATCGACCTATGTACATGCAAATTATTTTTATTT [TGCATGCA_site182] | 7.11
42 | CTTTTAATATGTGTAGTGCATTTTTTTTTTTTTTTT [GTGCAC_site9727] | 8.98
43 | AAAAAAAAAAAAAACACACACAACACCCATACCTTA [CACACA_site3621] | 7.34
44 | GTCCTTCATCATATTTAACACACAGAGAAAAAGCGG [CACACA_site7979] | 7.68
